What all share (assay): glycan array binding signal (z-score within array); higher = stronger binding
Holding throughout (details): glycan notation: IUPAC condensed, linker removed

Experiment [1] deals with GlcNAc(b1-3)Fuc. The procedure, abridged:
(§1)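 Arrays were curated from the Consortium for Functional Glycomics database, 3228 in total, and kept only where the protein sequence was available. Binding is expressed as a within-array Z-score. This score was averaged across arrays of the same protein sequence at different concentrations or buffers and across linkers, and negative values can be read as non-binding.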

In experiment [2] the target is GlcNAc(b1-3)Gal. In outline: as §1
For experiment [3], the target named is GlcNAc(b1-3)Gal(b1-3)GalNAc. The procedure, abridged:
as §1

Experiment [4] addresses GlcNAc(b1-3)Gal(b1-4)Glc. In outline: as §1
Experiment [5] concerns the target GlcNAc(b1-3)Gal(b1-4)GlcNAc. The procedure, abridged: as §1
In experiment [6] the target is GlcNAc(b1-3)Gal(b1-4)GlcNAc(b1-2)Man(a1-3)[GlcNAc(b1-3)Gal(b1-4)GlcNAc(b1-2)Man(a1-6)]Man(b1-4)GlcNAc(b1-4)GlcNAc. In outline:
as §1

Experiment [7] addresses GlcNAc(b1-3)Gal(b1-4)GlcNAc(b1-2)Man(a1-3)[GlcNAc(b1-3)Gal(b1-4)GlcNAc(b1-2)Man(a1-6)]Man(b1-4)GlcNAc(b1-4)[Fuc(a1-6)]GlcNAc. In outline: as §1
Experiment [8] concerns the target GlcNAc(b1-3)Gal(b1-4)GlcNAc(b1-2)[GlcNAc(b1-3)Gal(b1-4)GlcNAc(b1-6)]Man(a1-6)[GlcNAc(b1-3)Gal(b1-4)GlcNAc(b1-2)Man(a1-3)]Man(b1-4)GlcNAc(b1-4)GlcNAc. In outline:
as §1

Experiment [9] addresses GlcNAc(b1-3)Gal(b1-4)GlcNAc(b1-3)Gal(b1-4)GlcNAc. In outline:
as §1

Experiment [10] has as its target GlcNAc(b1-3)Gal(b1-4)GlcNAc(b1-3)Gal(b1-4)GlcNAc(b1-2)Man(a1-3)[GlcNAc(b1-3)Gal(b1-4)GlcNAc(b1-3)Gal(b1-4)GlcNAc(b1-2)Man(a1-6)]Man(b1-4)GlcNAc(b1-4)GlcNAc. In outline:
as §1

The target of experiment [11] is GlcNAc(b1-3)Gal(b1-4)GlcNAc(b1-3)Gal(b1-4)GlcNAc(b1-2)Man(a1-3)[GlcNAc(b1-3)Gal(b1-4)GlcNAc(b1-3)Gal(b1-4)GlcNAc(b1-2)Man(a1-6)]Man(b1-4)GlcNAc(b1-4)[Fuc(a1-6)]GlcNAc. In outline:
as §1

The target in experiment [12] is GlcNAc(b1-3)Gal(b1-4)GlcNAc(b1-3)Gal(b1-4)GlcNAc(b1-2)[GlcNAc(b1-3)Gal(b1-4)GlcNAc(b1-3)Gal(b1-4)GlcNAc(b1-6)]Man(a1-6)[GlcNAc(b1-3)Gal(b1-4)GlcNAc(b1-3)Gal(b1-4)GlcNAc(b1-2)Man(a1-3)]Man(b1-4)GlcNAc(b1-4)[Fuc(a1-6)]GlcNAc. The procedure, abridged:
as §1

The target of experiment [13] is GlcNAc(b1-3)Gal(b1-4)GlcNAc(b1-3)Gal(b1-4)GlcNAc(b1-3)Gal(b1-4)GlcNAc(b1-2)Man(a1-3)[GlcNAc(b1-3)Gal(b1-4)GlcNAc(b1-3)Gal(b1-4)GlcNAc(b1-3)Gal(b1-4)GlcNAc(b1-2)Man(a1-6)]Man(b1-4)GlcNAc(b1-4)GlcNAc. The procedure, abridged:
as §1

Experiment [14] concerns the target GlcNAc(b1-3)Gal(b1-4)GlcNAc(b1-3)Gal(b1-4)GlcNAc(b1-3)Gal(b1-4)GlcNAc(b1-2)Man(a1-3)[GlcNAc(b1-3)Gal(b1-4)GlcNAc(b1-3)Gal(b1-4)GlcNAc(b1-3)Gal(b1-4)GlcNAc(b1-2)Man(a1-6)]Man(b1-4)GlcNAc(b1-4)[Fuc(a1-6)]GlcNAc. In outline:
as §1

Experiment [15] addresses GlcNAc(b1-3)Gal(b1-4)GlcNAc(b1-3)Gal(b1-4)GlcNAc(b1-3)Gal(b1-4)GlcNAc(b1-2)[GlcNAc(b1-3)Gal(b1-4)GlcNAc(b1-3)Gal(b1-4)GlcNAc(b1-3)Gal(b1-4)GlcNAc(b1-6)]Man(a1-6)[GlcNAc(b1-3)Gal(b1-4)GlcNAc(b1-3)Gal(b1-4)GlcNAc(b1-3)Gal(b1-4)GlcNAc(b1-2)Man(a1-3)]Man(b1-4)GlcNAc(b1-4)[Fuc(a1-6)]GlcNAc. The procedure, abridged: as §1
The target in experiment [16] is GlcNAc(b1-3)Gal(b1-4)GlcNAc(b1-3)Gal(b1-4)GlcNAc(b1-3)Gal(b1-4)GlcNAc(b1-3)Gal(b1-4)GlcNAc(b1-2)Man(a1-3)[GlcNAc(b1-3)Gal(b1-4)GlcNAc(b1-3)Gal(b1-4)GlcNAc(b1-3)Gal(b1-4)GlcNAc(b1-3)Gal(b1-4)GlcNAc(b1-2)Man(a1-6)]Man(b1-4)GlcNAc(b1-4)GlcNAc. The procedure, abridged: as §1
The target of experiment [17] is GlcNAc(b1-3)Gal(b1-4)GlcNAc(b1-3)Gal(b1-4)GlcNAc(b1-3)Gal(b1-4)GlcNAc(b1-3)Gal(b1-4)GlcNAc(b1-2)Man(a1-3)[GlcNAc(b1-3)Gal(b1-4)GlcNAc(b1-3)Gal(b1-4)GlcNAc(b1-3)Gal(b1-4)GlcNAc(b1-3)Gal(b1-4)GlcNAc(b1-2)Man(a1-6)]Man(b1-4)GlcNAc(b1-4)[Fuc(a1-6)]GlcNAc. The procedure, abridged:
as §1

The target of experiment [18] is GlcNAc(b1-3)Gal(b1-4)GlcNAc(b1-3)Gal(b1-4)GlcNAc(b1-3)Gal(b1-4)GlcNAc(b1-3)Gal(b1-4)GlcNAc(b1-2)[GlcNAc(b1-3)Gal(b1-4)GlcNAc(b1-3)Gal(b1-4)GlcNAc(b1-3)Gal(b1-4)GlcNAc(b1-3)Gal(b1-4)GlcNAc(b1-6)]Man(a1-6)[GlcNAc(b1-3)Gal(b1-4)GlcNAc(b1-3)Gal(b1-4)GlcNAc(b1-3)Gal(b1-4)GlcNAc(b1-3)Gal(b1-4)GlcNAc(b1-2)Man(a1-3)]Man(b1-4)GlcNAc(b1-4)[Fuc(a1-6)]GlcNAc. In outline: as §1

Experiment [19] has as its target GlcNAc(b1-3)Gal(b1-4)GlcNAc(b1-3)Gal(b1-4)GlcNAc(b1-3)GalNAc. The procedure, abridged: as §1

Some of the results follow.

B1: Siglec-7-SA-PE-180 (Homo sapiens), Q9Y286 (protein)
chain: MLLLLLLPLLWGRERVEGQKSNRKDYSLTMQSSVTVQEGMCVHVRCSFSYPVDSQTDSDPVHGYWFRAGNDISWKAPVATNNPAWAVQEETRDRFHLLGDPQTKNCTLSIRDARMSDAGRYFFRMEKGNIKWNYKYDQLSVNVTALTHRPNILIPGTLESGCFQNLTCSVPWACEQGTPPMISWMGTSVSPLHPSTTRSSVLTLIPQPQHHGTSLTCQVTLPGAGVTTNRTIQLNVSYPPQNLTVTVFQGEGTASTALGNSSSLSVLEGQSLRLVCAVDSNPPARLSWTWRSLTLYPSQPSNPLVLELQVHLGDEGEFTCRAQNSLGSQHVSLNLSLQQEYTGKMRPVSGVLLGAVGGAGATALVFLSFCVIFIVVRSCRKKSARPAADVGDIGMKDANTIRGSASQGNLTESWADDNPRHHGLAAHSSGEEREIQYAPLSFHKGEPQDLSGQEATNNEYSEIKIPK
As for B1, the “glycan array binding signal (z-score)” value in [1] is -0.311; in experiment [2], -0.272; in [3] it was -0.136; in experiment [4], -0.227; in experiment [5] it was -0.229; in experiment [6], 0.036. In addition, the “glycan array binding signal (z-score)” value is 0.467 in experiment [7]; 1.07 in experiment [8]; -0.287 in experiment [9]; 0.981 in experiment [10]; 0.378 in [11]; 0.176 in experiment [12]. Also, the “glycan array binding signal (z-score)” value in experiment [13] is 0.059; in experiment [14], 0.303; in experiment [15] it was 0.228; in [16], 0.071; in [17], -0.56; in experiment [18], 0.683. The “glycan array binding signal (z-score)” value in experiment [19] is -0.429.

Source of the values: the supplement of paper PMC8728848.
